Source: the supplement of paper PMC3334620
Over roughly 33,000 sequences, “E-score (-0.5 to 0.5)” has its median near -0.054; the highest 2% begin near 0.39. The list shows a part of the results.

molecular target: Ylr278c (UniProt Q05854); assay: PBM E-score (8-mer binding enrichment) (E-score (-0.5 to 0.5)); higher = stronger / more preferred TF binding; most listed sequences are background and not binding sites; settings: protein concentration: 200 nM; construct: GST-DNA-binding domain
In short: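 The E-score, a modified Wilcoxon-Mann-Whitney statistic, was computed by the Universal PBM Analysis Suite for every ungapped eight-base word pooled with its reverse complement. Scans behind it were normalised with masliner after bound GST-tagged yeast transcription factors were detected with fluorescent anti-GST. The proteins, at about 100-200 nM, had been applied to universal all-10-mer Agilent arrays made double-stranded by primer extension.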

| Sequence | PBM E-score |
| --- | --- |
| TGACTCCA | -0.218 |
| TTAATAAA | 0.00662 |
| GTAATGGA | -0.117 |
| GACCATGC | -0.0555 |
| AAGACTTC | -0.186 |
| ACTCCTGG | -0.0351 |
| CCGATACG | 0.306 |
| CCGTCAGG | 0.103 |
| AGCCTGCC | -0.0346 |
| GGCGCCGA | 0.31 |
| AACGAACA | 0.154 |
| CAACGTCA | -0.062 |
| TCCAAAAA | -0.103 |
| GAGACCGA | 0.141 |
| AGCGAGAA | -0.0276 |
| ACGTATCG | -0.161 |
| TCAACAGA | -0.118 |
| CGCAGTGC | -0.0783 |
| ACGTGCTC | -0.00716 |
| CAGAAGCA | -0.12 |
| ACGGCTCA | -0.0837 |
| ATACTAAC | 0.036 |
| CCCGGGCG | 0.291 |
| ACGTACTG | -0.138 |
| CACGTAGG | -0.272 |

| Sequence | PBM E-score |
| --- | --- |
| CGGAATTC | 0.464 |
| ACCGTGCC | -0.0784 |
| CTTATTAC | -0.138 |
| ACCTACTG | -0.152 |
| CTGCGAGA | -0.274 |
| GATCACCC | -0.0849 |
| ACTGCTGG | -0.169 |
| CGTGCACC | -0.0232 |
| ACAATTCA | -0.116 |
| TCCTGTAA | -0.118 |
| ACACCTGC | -0.14 |
| ATGTATTC | 0.163 |
| CTCGGCCA | 0.136 |
| ACGAGTAA | 0.0026 |
| GCTCAGTA | -0.159 |
| ATACAGCG | -0.0771 |
| CTTATAAC | -0.0795 |
| AAAGTTTG | 0.00691 |
| CTACCCAC | -0.211 |
| TATCATGA | -0.292 |
| GACCCGAC | 0.229 |
| ACCTTATA | -0.0665 |
| CCAAACGG | 0.0912 |
| ACCTAGAA | -0.19 |
| ATTTATAC | 0.134 |

| Sequence | PBM E-score |
| --- | --- |
| AATTGGCC | -0.118 |
| GCCTTCCA | -0.181 |
| CGCAGGTA | 0.102 |
| AGCCGGAC | 0.407 |
| GGGGAGAA | 0.0935 |
| CGCCCCCC | -0.0927 |
| CGTTACTC | -0.0712 |
| CCGGTTAA | 0.384 |
| GTAAAGTA | -0.0346 |
| CAAGTGTC | -0.236 |
| AACCAGAG | -0.201 |
| CCAATGTA | -0.0158 |
| GCACGACC | -0.166 |
| ATTCCCTC | -0.0673 |
| AAGCGGGT | 0.0864 |
| CCTTAAGA | -0.303 |
| GAACAGAA | -0.0459 |
| ATATAGAG | -0.169 |
| ACCTCCTA | -0.101 |
| CAGAATCG | 0.00258 |
| AGTTGGAT | -0.0664 |
| CGACATAC | 0.0107 |
| GCAGGATA | -0.221 |
| AGTTACAC | -0.0994 |
| GACGGCAC | 0.0236 |

| Sequence | PBM E-score |
| --- | --- |
| ACACCGTG | 0.143 |
| AATGGCGA | 0.125 |
| CCGGTTGC | 0.316 |
| GTGCTTTA | -0.09 |
| CACACATG | -0.266 |
| GAGAGCGA | -0.0697 |
| CCTTTGCC | -0.143 |
| AATTCGTA | -0.0871 |
| GGTGTGAA | 0.0191 |
| CGTTGCAG | -0.138 |
| ACATTAGA | -0.114 |
| CCTAATAG | -0.119 |
| GGCTTGAA | -0.135 |
| CCAACCCG | 0.0992 |
| CCTAGCTC | 0.108 |
| TAATCGAA | -0.0147 |
| GGTTTTAA | 0.204 |
| AGACCCTG | -0.235 |
| AACATGCA | -0.227 |
| CCACTGCA | -0.243 |
| CAAGATGG | -0.151 |
| CAAATTGG | -0.00322 |
| AAATGGGA | -0.167 |
| GCGAAAAA | 0.135 |
| AGACGGCC | 0.0197 |

| Sequence | PBM E-score |
| --- | --- |
| CACTTTGG | -0.0526 |
| TCGATAAA | 0.0129 |
| CATCTAAG | -0.126 |
| AGACCTAC | -0.142 |
| AGGGGTTA | -0.171 |
| GCCTTCAC | 0.00501 |
| ATAGGCAT | -0.072 |
| CTGTCAAA | -0.221 |
| GTCACACA | -0.101 |
| ACTACTAT | 0.0743 |
| GATGGCGC | -0.0855 |
| CGTGGATC | -0.133 |
| ACGTAAGA | -0.268 |
| TAATTCAA | -0.0538 |
| GACTCGAA | -0.0224 |
| GCGAGTCC | 0.102 |
| CTGTCGCC | 0.0179 |
| ATCGGGCC | 0.13 |
| GAGCTCTA | 0.0169 |
| CGCCTGGA | -0.098 |
| AATCAACA | 0.0594 |
| CTTGAGCC | -0.148 |
| ATCAACAC | -0.103 |
| CTTCATAC | -0.0193 |
| ACATCTAG | -0.14 |

| Sequence | PBM E-score |
| --- | --- |
| TCTAGACA | -0.2 |
| CCGTGCGA | 0.183 |
| CTGAAAGA | -0.124 |
| AGTGGAAA | -0.0355 |
| AAGCAGAC | -0.241 |
| GGCAATAC | 0.173 |
| CGAGACCG | 0.233 |
| GCCTTCGA | -0.18 |
| ACCATGGC | -0.153 |
| AAAAGATA | -0.0427 |
| CCATCCCG | 0.129 |
| CTTATCCA | -0.0762 |
| AACTCCTG | 0.152 |
| TATCTCAA | -0.113 |
| AACCGATA | 0.0662 |
| GATTTGCA | 0.0968 |
| AGTTAGGC | -0.0659 |
| AACGTCAT | -0.0958 |
| AGCATCAA | -0.161 |
| ACGTCCGG | 0.373 |
| GGGCTTTA | 0.034 |
| CACTTGTC | -0.0561 |
| ACGCTGAA | -0.0706 |
| GTCCAACA | -0.156 |
| CTTATGGC | -0.216 |

| Sequence | PBM E-score |
| --- | --- |
| AAGACCGT | 0.152 |
| CTAGCCGA | 0.0987 |
| TAACTCCA | -0.0465 |
| GCGCCTCC | 0.238 |
| AGTCCCGA | 0.207 |
| CTCGCTGC | -0.0912 |
| ATGGGATG | 0.0381 |
| ACCTAAGG | -0.254 |
| ATTTTCGC | 0.0951 |
| CTGGCACA | -0.391 |
| CAAATGAC | -0.152 |
| AATAGCAC | -0.015 |
| GCGTAGTA | -0.122 |
| AACTCAAC | 0.00243 |
| GCCAGGCC | 0.0863 |
| GTCATCAA | -0.089 |
| AAGCGAGA | -0.00596 |
| ACCTCGGA | 0.387 |
| GCGGCACA | 0.116 |
| GACCCGGC | 0.184 |
| CACGTTGA | -0.163 |
| GGTTCGGA | 0.42 |
